The list shows a part of the results.

T1: UNK ZnF1-3 (human, UniProt Q9C0B0 31-174)
T1 sequence: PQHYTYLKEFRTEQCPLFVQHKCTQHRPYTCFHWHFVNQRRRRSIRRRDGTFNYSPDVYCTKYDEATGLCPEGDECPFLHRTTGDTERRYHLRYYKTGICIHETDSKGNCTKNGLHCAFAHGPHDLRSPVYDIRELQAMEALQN

B1: chr2:216981417:216981418:+_ENSG00000079246_ENST00000392132|hu_hu|hu_hu_hu_mus_True|28_38 (ssRNA)
RNA: GGGAGUUCUACAGUCCGACGAUCCUGAUACUGGUCCUUGCCAGCAAGGGCAUUAUCAGUGCCAUCUGUGCCAUAGAGGACUAACGCAAUCUCAUCUUUGUUCUCAGCAAACACCUGUCGUUGGACAAACAUAGUCAUCACUUUCAACAGAGGAUUGAGCAUCA
B2: chrX:69798090:69798091:-_ENSMUSG00000031343_ENSMUST00000055966|mus_mus|mus_mus_mus_hu_False|28_58 (ssRNA)
RNA: GGGAGUUCUACAGUCCGACGAUCAAGUCCCCGGGUUCUUGUCGUCUUGAUUCCCCUUGACCAGUGGUUCCAGGGAGAAUACUAAUCAGGAAAAGAAUCCCAAGGCUGGUCACAUAACAGUGACUUGUUUGUGUGAUUAUCAUCCAACAGAGGAUUGAGCAUCA
B3: chr7:151048522:151048523:+_ENSG00000013374_ENST00000566856|hu_mus|hu_hu_hu_mus_True|28_58 (ssRNA)
RNA: GGGAGUUCUACAGUCCGACGAUCCUGUUUCUUAUUUAUUACGAUCUUGAUGUAAUUUUCUUGAAAUCCGAAAGUUUCAGCUAUUUUACACCUCAGGUCUCUACCAGUGAUGUGCAAGCGGGUCUCCAACAAGCUUUUCUUAUCCAACAGAGGAUUGAGCAUCA
B4: chrX:34632047:34632048:-_ENSMUSG00000036572_ENSMUST00000076265|mus_mus|motif|central (ssRNA)
RNA: GGGAGUUCUACAGUCCGACGAUCGACUAUUUAAAUCUUUUCCAUCAGCCAUAAUUUGCUCUAUCCUCCGCUCUACUUGUGCGGCAAUUACAUGCUCAUUGCUCCUACACUACAGAGUCAACAGUCAACACCAACAAUGCAAAACAACAGAGGAUUGAGCAUCA
B5: chr10:20037848:20037849:+_ENSMUSG00000037608_ENSMUST00000043881|mus_hu|FALSE|FALSE (ssRNA)
RNA: GGGAGUUCUACAGUCCGACGAUCCAAGUGAAGUCUUUGAGAUACUGUAAAAAUUCUUCCUGGAGAGAAUGCUCUGAGAAAUUAAACUCUAAAUUCGAAUUCCUGACACGCCGAAUCGCGGUUCCGGGAAUUUAUCUCCGUUGCCAACAGAGGAUUGAGCAUCA
B6: 11440338_11440458_1189_CDS_ENSMUSG00000040720_ENSMUST00000059914|mouse|control|control (ssRNA)
RNA: GGGAGUUCUACAGUCCGACGAUCCAGUUCAGUUAACUUCACCGAGGCUUCUACUGCCCCUGAAUUCUCUUUAUCUGGACCUUGAUCCUUCAUUCUACUGAUUUCAAUUUCAAAAGUAGUUUUGUAUGGACAGCUGAAAUACAACAACAGAGGAUUGAGCAUCA
B7: chr2:168010559:168010560:-_ENSMUSG00000051149_ENSMUST00000088001|perfect_dup|motif|central (ssRNA)
RNA: GGGAGUUCUACAGUCCGACGAUCUUCCAAAGUCUUUUUAUCUGCAUUGAAGGUACAGUAAGGGCAGUUAAGGAGAAUCCGGUUUUCAAAGUCUUCACUAUGGACAUUCCGGAAAUGACUUUUGUAGGCAGAGAAGAAUUUUGACAACAGAGGAUUGAGCAUCA
B8: chr12:79975562:79975563:+_ENSMUSG00000021116_ENSMUST00000071230|mus_mus|FALSE|FALSE (ssRNA)
RNA: GGGAGUUCUACAGUCCGACGAUCGAAUUUGUCCUCACAUUUGAUUGCUUCCUCUGGAGAAACUCUUCUUUUUGACAAAUCUAUAUAUCCUUUUUCUUUAUCCACUCUAAUGACAACAACACAUUCAUUUCUGCCAAUUCGGAUCAACAGAGGAUUGAGCAUCA
B9: 115922937_115923057_297_CDS_ENSG00000165813_ENST00000369287|human|control|control (ssRNA)
RNA: GGGAGUUCUACAGUCCGACGAUCAAACAAGUUGCAUGAGUCUUCCUUUAAUUCAGGUGUUUUCCCAACAUUUUUAUCAGAGGAAGUAGAGGCUAUGUGGUCUGUCUCUGACAUGCUGACUGGCACCAAUUCACUUUGUAAUUCCAACAGAGGAUUGAGCAUCA
B10: 34767496_34767616_1414_3pUTR_ENSMUSG00000003778_ENSMUST00000003876|mouse|control|control (ssRNA)
RNA: GGGAGUUCUACAGUCCGACGAUCCAGCAAUAUCCAUCUUCUCCGCUAGAUCCAAGUCUUCCUUCCCAUCUAUGCUUGGAGCCUUUGAUCCACCAGGAGCCUCUGCUACCCCUGAGCGGAAACACUCUUCUUUGAUGGAAUUAACAACAGAGGAUUGAGCAUCA
B11: chr13:48835921:48835922:+_ENSG00000136156_ENST00000378565|hu_hu|motif|central (ssRNA)
RNA: GGGAGUUCUACAGUCCGACGAUCGAUAUGGGUUAUACAAAUUAGUAACACAAGUUAUUUCUUAAAUUCCAAACAUUUUCGGAAAUAUUAUUACAGCAGAUGCCUAGGAUAUUAAAACAUAAAGGUGGAAAUCAUUCUCUAAAUCAACAGAGGAUUGAGCAUCA
B12: 23648108_23650120_724_CDS_ENSG00000125944_ENST00000302271|human|control|control (ssRNA)
RNA: GGGAGUUCUACAGUCCGACGAUCAAUGCACACUCCAAGGUGUUUACCAGGGCGAAUUUCAUAGCUGUCACACAGUUUCACGGCUUCCUGUGCAGCUUCCUUUCCACAGAAGGUGAUAAAUGCAUACCCUCUAUUCUGACCGGACAACAGAGGAUUGAGCAUCA
B13: chr6:41757443:41757444:+_ENSG00000214736_ENST00000398881|hu_mus|hu_hu_hu_mus_False|78_108 (ssRNA)
RNA: GGGAGUUCUACAGUCCGACGAUCGAACUGUCUGCUGGCAACAUCUCAGCCGACACUGUGGACUCAAGGGGCAGUGGGGGGGGGUUCAGGCAAGGAGAGGGAGUCAACUUCAGCUGCCACUCAGGUAGGAUCUUGUGGUCACAGCAACAGAGGAUUGAGCAUCA
B14: chr19:29217640:29217641:+_ENSMUSG00000024785_ENSMUST00000064393|mus_mus|motif|central (ssRNA)
RNA: GGGAGUUCUACAGUCCGACGAUCCUUGGUUUCAACUUUAAACAUAACCUGGAAAAAGCUCUUCAGAUGCCGCAAAAAUUCGGUCGUGUAGGGUGAGAGUGGUCCCAGCAGGACUUUGGAAACGUCCUGCUGUCCAAGGGUCAUCAACAGAGGAUUGAGCAUCA
B15: chrX:50352303:50352304:+_ENSMUSG00000025630_ENSMUST00000026723|mus_hu|FALSE|FALSE (ssRNA)
RNA: GGGAGUUCUACAGUCCGACGAUCCAGCAUAAUGAUUAGGUAUGCAAAAUAAAUCAAGGUCAUAACCUGGUUCAUCAUCACUAAUCACGACGCCAGGGCUGCGGGUCGCCAUAACGGAGCCGGCCGGCGCGCGGGCUGACUGCUCAACAGAGGAUUGAGCAUCA
B16: chr5:162900210:162900211:+_ENSG00000072571_ENST00000358715|hu_mus|motif|central (ssRNA)
RNA: GGGAGUUCUACAGUCCGACGAUCUUGGAUGUAUUCUAAGAGUUUUUCUGUUUCACAUUUUUCAUCGAUCUUUUCUUUCUCGGUUGAAACAAGCUUUCCCUCCAGCUGGACUAUUUUUCCCUUAGACUCCGUGAGGUCCUUCUGCAACAGAGGAUUGAGCAUCA
B17: chr2:39006174:39006175:+_ENSG00000152147_ENST00000409566|hu_hu|motif|central (ssRNA)
RNA: GGGAGUUCUACAGUCCGACGAUCUCAUUCUUCUCACUGGCUGUCACUCGGACCUCUUUGUAAAUGUAAUCUUGCCAUUCGGAGGGGCCUUUCUUCAUCCAUUCACUCAUGAUUGCCACCUGGCUAAAUCAGUUAAAAAACUCCCAACAGAGGAUUGAGCAUCA
B18: chr3:179342097:179342098:+_ENSG00000136521_ENST00000259037|hu_hu|FALSE|FALSE (ssRNA)
RNA: GGGAGUUCUACAGUCCGACGAUCCUGGUGCUUAACAUUAUUAGACUUCUAUAACUUCCAUUUGUCAGGUAAAUAAAACACUAACCUUUCAAAGUUGCUACAAUUUUAGGAGUUCACAAAUUCCUAUUUCUCCAGUUUUUAUUACAACAGAGGAUUGAGCAUCA
B19: chr5:10264876:10264877:+_ENSG00000150753_ENST00000503026|hu_hu|motif|central (ssRNA)
RNA: GGGAGUUCUACAGUCCGACGAUCAUAACUGUAGAUGCAUCACGAGACAUCCAUUUACUUAAUCACAGAAGUGGAUCUUGCGGCAUAGUUUUCUCAAUGUCUUCAUUCUUCAGAUUCUCCAGGCUUACGAAUGUCAUCAAUCUUCAACAGAGGAUUGAGCAUCA
B20: 130276092_130276212_139_5pUTR_ENSMUSG00000027303_ENSMUST00000028769|mouse|control|control (ssRNA)
RNA: GGGAGUUCUACAGUCCGACGAUCCCCCUCAGGGCCGCCGCCCGGUCCGCUGCUCGAAGCCCCGCGGCGGCGGCGGCGGCCUCGCCUCCAUGGCGAGGAGAAGCGGCAGAGAGAGGACUGGGCUGGAGGCUGCGAUGGCGGCGUCAACAGAGGAUUGAGCAUCA
B21: chr4:76721835:76721836:+_ENSG00000138768_ENST00000264904|hu_mus|hu_hu_hu_mus_True|8_98 (ssRNA)
RNA: GGGAGUUCUACAGUCCGACGAUCGUUUGGCUGGGGUUCUGAGAUGCCUCUGGAAUAUAACUCAUGUUUGCUAAUAAAUCCUAGUUUCUCUAUGAAAUUCUCUUUGCCAAUCCUCUUCUCUAUUAGUGUUUUAGCUUUCUCUUUCAACAGAGGAUUGAGCAUCA
B22: chr18:52894491:52894492:-_ENSG00000196628_ENST00000354452|hu_mus|motif|central (ssRNA)
RNA: GGGAGUUCUACAGUCCGACGAUCCAAAAAAAAAAAUCCAUAUUUACAGUAAAAUCUUUCUUUUAAAAAAGUUAAUCAGUACGGUUUUUUUACAGGAGAAAAAAGUCUGAAACAAAUCAACAAAAGCUUACCAUAGUCACUAAACAACAGAGGAUUGAGCAUCA

The target in this experiment is T1, UNK ZnF1-3. The experiment in a line: nsRBNS (natural sequence RNA bind-n-seq); RBNS binding buffer (assumed for nsRBNS): 25 mM Tris pH 7.5, 150 mM KCl, 3 mM MgCl2, 0.01% Triton X-100, 500 ug/ml BSA, 20 U/ml SUPERase-In, 4 C; UNK is unkempt and MSI1 is Musashi-1; names of the RNAs are library labels; protein concentration not given here; high values mean tight binding.
For the molecule B1, the binding signal was 0.77 enrichment R. Next, B2: 0.472 enrichment R; B3: 0.563 enrichment R; B4: 1.36 enrichment R. Next, B5: 1.02 enrichment R; B6: 0.857 enrichment R.

On to B7, for which the binding signal is 1.29 enrichment R. Next, B8: 0.629 enrichment R. The same measure for B9: 0.805 enrichment R; for B10: 0.707 enrichment R; for B11: 1.11 enrichment R. B12 displayed a binding signal of 0.814 enrichment R. The same measure for B13: 1.98 enrichment R.

Molecule B14 registered a binding signal of 1.08 enrichment R. B15: the binding signal amounted to 0.952 enrichment R.

With B16, the binding signal turned out to be 0.266 enrichment R. The same measure for B17: 0.801 enrichment R; for B18: 0.572 enrichment R; for B19: 0.802 enrichment R. In turn, B20 had a binding signal of 0.429 enrichment R. Next, B21: 0.567 enrichment R; B22: 1.13 enrichment R.

Source of the values: paper PMC12136788.
